# Test results from the supplement of paper PMC8728848.
# The other results are listed elsewhere or left out.
# B1: Eosinophil cationic protein (ECP) (Homo sapiens), P12724 (protein)
# chain: MVPKLFTSQICLLLLLGLMGVEGSLHARPPQFTRAQWFAIQHISLNPPRCTIAMRAINNYRWRCKNQNTFLRTTFANVVNVCGNQSIRCPHNRTLNNCHRSRFRVPLLHCDLINPGAQNISNCTYADRPGRRFYVVACDNRDPRDSPRYPVVPVHLDTTI
# Legend:
# Test in all cases: glycan array binding signal (z-score within array); higher = stronger binding
# Conditions in all cases: glycan notation: IUPAC condensed, linker removed
# [1] = biological target: Fuc(a1-2)Gal(b1-4)[Fuc(a1-3)]GlcNAc
# Outline: (§1)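 Columns mapping to the same glycan were averaged after glycan names were converted to IUPAC-condensed notation. The data come from 3228 arrays in the Consortium for Functional Glycomics database, limited to those with an available protein sequence. Binding is reported as a within-array Z-score averaged across arrays of one protein sequence and across linkers.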
# [2] = biological target: Fuc(a1-2)Gal(b1-4)[Fuc(a1-3)]GlcNAc(b1-2)Man(a1-3)[Fuc(a1-2)Gal(b1-4)[Fuc(a1-3)]GlcNAc(b1-2)Man(a1-6)]Man(b1-4)GlcNAc(b1-4)GlcNAc
# Outline: as §1
# [3] = biological target: Fuc(a1-2)Gal(b1-4)[Fuc(a1-3)]GlcNAc(b1-2)[Fuc(a1-2)Gal(b1-4)[Fuc(a1-3)]GlcNAc(b1-4)]Man(a1-3)[Fuc(a1-2)Gal(b1-4)[Fuc(a1-3)]GlcNAc(b1-2)Man(a1-6)]Man(b1-4)GlcNAc(b1-4)GlcNAc
# Outline: as §1
# [4] = biological target: Fuc(a1-2)Gal(b1-4)[Fuc(a1-3)]GlcNAc(b1-3)Gal(b1-4)[Fuc(a1-3)]GlcNAc
# Outline: as §1
# [5] = biological target: Fuc(a1-2)Gal(b1-4)[Fuc(a1-3)]GlcNAc(b1-3)Gal(b1-4)[Fuc(a1-3)]GlcNAc(b1-3)Gal(b1-4)[Fuc(a1-3)]GlcNAc
# Outline: as §1
# [6] = biological target: Fuc(a1-2)Gal(b1-4)[Fuc(a1-3)]GlcNAc(b1-3)GalNAc
# Outline: as §1
# Fuc(a1-2)Gal6S(b1-4)Glc = biological target: Fuc(a1-2)Gal6S(b1-4)Glc
# Outline: as §1
# [7] = biological target: Fuc(a1-2)Gal6S(b1-4)Glc6S
# Outline: as §1
# [8] = biological target: Fuc(a1-2)Gal6S(b1-4)GlcNAc
# Outline: as §1
# Fuc(a1-2)[Gal(a1-3)]Gal = biological target: Fuc(a1-2)[Gal(a1-3)]Gal
# Outline: as §1
# [9] = biological target: Fuc(a1-2)[Gal(a1-3)]Gal(b1-3)GalNAc
# Outline: as §1
# [10] = biological target: Fuc(a1-2)[Gal(a1-3)]Gal(b1-3)GlcNAc
# Outline: as §1
# [11] = biological target: Fuc(a1-2)[Gal(a1-3)]Gal(b1-3)GlcNAc(b1-2)Man(a1-3)[Fuc(a1-2)[Gal(a1-3)]Gal(b1-3)GlcNAc(b1-2)Man(a1-6)]Man(b1-4)GlcNAc(b1-4)GlcNAc
# Outline: as §1
# [12] = biological target: Fuc(a1-2)[Gal(a1-3)]Gal(b1-3)GlcNAc(b1-2)Man(a1-3)[Fuc(a1-2)[Gal(a1-3)]Gal(b1-3)GlcNAc(b1-2)Man(a1-6)]Man(b1-4)GlcNAc(b1-4)[Fuc(a1-6)]GlcNAc
# Outline: as §1
# [13] = biological target: Fuc(a1-2)[Gal(a1-3)]Gal(b1-3)GlcNAc(b1-3)GalNAc
# Outline: as §1
# [14] = biological target: Fuc(a1-2)[Gal(a1-3)]Gal(b1-4)Glc
# Outline: as §1
# [15] = biological target: Fuc(a1-2)[Gal(a1-3)]Gal(b1-4)GlcNAc
# Outline: as §1
# [16] = biological target: Fuc(a1-2)[Gal(a1-3)]Gal(b1-4)GlcNAc(b1-2)Man(a1-3)[Fuc(a1-2)[Gal(a1-3)]Gal(b1-4)GlcNAc(b1-2)Man(a1-6)]Man(b1-4)GlcNAc(b1-4)GlcNAc
# Outline: as §1
# [17] = biological target: Fuc(a1-2)[Gal(a1-3)]Gal(b1-4)GlcNAc(b1-2)Man(a1-3)[Fuc(a1-2)[Gal(a1-3)]Gal(b1-4)GlcNAc(b1-2)Man(a1-6)]Man(b1-4)GlcNAc(b1-4)[Fuc(a1-6)]GlcNAc
# Outline: as §1
# [18] = biological target: Fuc(a1-2)[Gal(a1-3)]Gal(b1-4)GlcNAc(b1-3)GalNAc
# Outline: as §1
# [19] = biological target: Fuc(a1-2)[Gal(a1-3)]Gal(b1-4)[Fuc(a1-3)]Glc
# Outline: as §1
# [20] = biological target: Fuc(a1-2)[Gal(a1-3)]Gal(b1-4)[Fuc(a1-3)]GlcNAc
# Outline: as §1
# [21] = biological target: Fuc(a1-2)[Gal(a1-3)]Gal(b1-4)[Fuc(a1-3)]GlcNAc(b1-3)GalNAc
# Outline: as §1
# [22] = biological target: Fuc(a1-2)[Gal(a1-4)]Gal(b1-4)GlcNAc
# Outline: as §1
# [23] = biological target: Fuc(a1-2)[GalNAc(a1-3)]Gal
# Outline: as §1
# [24] = biological target: Fuc(a1-2)[GalNAc(a1-3)]Gal(b1-3)GalNAc(a1-3)[Fuc(a1-2)]Gal(b1-4)GlcNAc
# Outline: as §1
# [25] = biological target: Fuc(a1-2)[GalNAc(a1-3)]Gal(b1-3)GlcNAc
# Outline: as §1
# [26] = biological target: Fuc(a1-2)[GalNAc(a1-3)]Gal(b1-3)GlcNAc(b1-2)Man(a1-3)[Fuc(a1-2)[GalNAc(a1-3)]Gal(b1-3)GlcNAc(b1-2)Man(a1-6)]Man(b1-4)GlcNAc(b1-4)GlcNAc
# Outline: as §1
# [27] = biological target: Fuc(a1-2)[GalNAc(a1-3)]Gal(b1-3)GlcNAc(b1-2)Man(a1-3)[Fuc(a1-2)[GalNAc(a1-3)]Gal(b1-3)GlcNAc(b1-2)Man(a1-6)]Man(b1-4)GlcNAc(b1-4)[Fuc(a1-6)]GlcNAc
# Outline: as §1
# [28] = biological target: Fuc(a1-2)[GalNAc(a1-3)]Gal(b1-3)GlcNAc(b1-3)GalNAc
# Outline: as §1
# [29] = biological target: Fuc(a1-2)[GalNAc(a1-3)]Gal(b1-4)Glc
# Outline: as §1
# [30] = biological target: Fuc(a1-2)[GalNAc(a1-3)]Gal(b1-4)GlcNAc
# Outline: as §1
# [31] = biological target: Fuc(a1-2)[GalNAc(a1-3)]Gal(b1-4)GlcNAc(b1-2)Man(a1-3)[Fuc(a1-2)[GalNAc(a1-3)]Gal(b1-4)GlcNAc(b1-2)Man(a1-6)]Man(b1-4)GlcNAc(b1-4)GlcNAc
# Outline: as §1
# [32] = biological target: Fuc(a1-2)[GalNAc(a1-3)]Gal(b1-4)GlcNAc(b1-2)Man(a1-3)[Fuc(a1-2)[GalNAc(a1-3)]Gal(b1-4)GlcNAc(b1-2)Man(a1-6)]Man(b1-4)GlcNAc(b1-4)[Fuc(a1-6)]GlcNAc
# Outline: as §1
# [33] = biological target: Fuc(a1-2)[GalNAc(a1-3)]Gal(b1-4)GlcNAc(b1-3)Gal(b1-4)GlcNAc
# Outline: as §1
# [34] = biological target: Fuc(a1-2)[GalNAc(a1-3)]Gal(b1-4)GlcNAc(b1-3)Gal(b1-4)GlcNAc(b1-3)Gal(b1-4)GlcNAc
# Outline: as §1
# [35] = biological target: Fuc(a1-2)[GalNAc(a1-3)]Gal(b1-4)GlcNAc(b1-3)GalNAc
# Outline: as §1
# [36] = biological target: Fuc(a1-2)[GalNAc(a1-3)]Gal(b1-4)[Fuc(a1-3)]GlcNAc
# Outline: as §1
# [37] = biological target: Fuc(a1-2)[GalNAc(a1-3)]Gal(b1-4)[Fuc(a1-3)]GlcNAc(b1-3)GalNAc
# Outline: as §1
# [38] = biological target: Fuc(a1-2)[GalNAc(a1-4)]Gal(b1-4)GlcNAc
# Outline: as §1
# [39] = biological target: Fuc(a1-2)[GalNAc(b1-3)]Gal
# Outline: as §1
# Fuc(a1-3)GlcNAc = biological target: Fuc(a1-3)GlcNAc
# Outline: as §1
# [40] = biological target: Fuc(a1-3)[Gal(b1-4)]Glc6S
# Outline: as §1
# [41] = biological target: Fuc(a1-3)[Gal(b1-4)]GlcNAc
# Outline: as §1
# [42] = biological target: Fuc(a1-3)[Gal(b1-4)]GlcNAc(b1-2)Man(a1-3)[Fuc(a1-3)[Gal(b1-4)]GlcNAc(b1-2)Man(a1-6)]Man(b1-4)GlcNAc(b1-4)GlcNAc
# Outline: as §1
binder,measurement,setting,value
B1,glycan array binding signal (z-score),[1],0.112
same,glycan array binding signal (z-score),[2],0.735
same,glycan array binding signal (z-score),[3],0.28
same,glycan array binding signal (z-score),[4],0.014
same,glycan array binding signal (z-score),[5],-0.094
same,glycan array binding signal (z-score),[6],2.14
same,glycan array binding signal (z-score),Fuc(a1-2)Gal6S(b1-4)Glc,-0.036
same,glycan array binding signal (z-score),[7],1.17
same,glycan array binding signal (z-score),[8],-0.39
same,glycan array binding signal (z-score),Fuc(a1-2)[Gal(a1-3)]Gal,-0.178
same,glycan array binding signal (z-score),[9],0.048
same,glycan array binding signal (z-score),[10],0.103
same,glycan array binding signal (z-score),[11],0.257
same,glycan array binding signal (z-score),[12],0.234
same,glycan array binding signal (z-score),[13],-0.146
same,glycan array binding signal (z-score),[14],-0.348
same,glycan array binding signal (z-score),[15],-0.144
same,glycan array binding signal (z-score),[16],0.306
same,glycan array binding signal (z-score),[17],-0.023
same,glycan array binding signal (z-score),[18],0.505
same,glycan array binding signal (z-score),[19],-0.455
same,glycan array binding signal (z-score),[20],0.847
same,glycan array binding signal (z-score),[21],0.524
same,glycan array binding signal (z-score),[22],-0.421
same,glycan array binding signal (z-score),[23],-0.298
same,glycan array binding signal (z-score),[24],-0.464
same,glycan array binding signal (z-score),[25],-0.57
same,glycan array binding signal (z-score),[26],-0.506
same,glycan array binding signal (z-score),[27],-0.378
same,glycan array binding signal (z-score),[28],1.06
same,glycan array binding signal (z-score),[29],-0.028
same,glycan array binding signal (z-score),[30],-0.271
same,glycan array binding signal (z-score),[31],-0.389
same,glycan array binding signal (z-score),[32],-0.524
same,glycan array binding signal (z-score),[33],0.068
same,glycan array binding signal (z-score),[34],-0.346
same,glycan array binding signal (z-score),[35],0.062
same,glycan array binding signal (z-score),[36],0.326
same,glycan array binding signal (z-score),[37],1.18
same,glycan array binding signal (z-score),[38],-0.287
same,glycan array binding signal (z-score),[39],-0.498
same,glycan array binding signal (z-score),Fuc(a1-3)GlcNAc,-0.717
same,glycan array binding signal (z-score),[40],0.016
same,glycan array binding signal (z-score),[41],-0.392
same,glycan array binding signal (z-score),[42],-0.346
